Among all 310,000 compounds or so, about 14,000 (4.5%) showed an effect of 50% or more. Effects have a minus sign here. The list shows a part of the results.
The compounds below were run against human ether-à-go-go-related gene (hERG) potassium channel (human, UniProt Q12809) (assay: primary screen, population patch clamp on CHO cells stably expressing hERG).
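Also: peak tail current of the secondary pulse compared with the same well before compound.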

Chain of human ether-à-go-go-related gene (hERG) potassium channel (Q12809 whole entry, looked up): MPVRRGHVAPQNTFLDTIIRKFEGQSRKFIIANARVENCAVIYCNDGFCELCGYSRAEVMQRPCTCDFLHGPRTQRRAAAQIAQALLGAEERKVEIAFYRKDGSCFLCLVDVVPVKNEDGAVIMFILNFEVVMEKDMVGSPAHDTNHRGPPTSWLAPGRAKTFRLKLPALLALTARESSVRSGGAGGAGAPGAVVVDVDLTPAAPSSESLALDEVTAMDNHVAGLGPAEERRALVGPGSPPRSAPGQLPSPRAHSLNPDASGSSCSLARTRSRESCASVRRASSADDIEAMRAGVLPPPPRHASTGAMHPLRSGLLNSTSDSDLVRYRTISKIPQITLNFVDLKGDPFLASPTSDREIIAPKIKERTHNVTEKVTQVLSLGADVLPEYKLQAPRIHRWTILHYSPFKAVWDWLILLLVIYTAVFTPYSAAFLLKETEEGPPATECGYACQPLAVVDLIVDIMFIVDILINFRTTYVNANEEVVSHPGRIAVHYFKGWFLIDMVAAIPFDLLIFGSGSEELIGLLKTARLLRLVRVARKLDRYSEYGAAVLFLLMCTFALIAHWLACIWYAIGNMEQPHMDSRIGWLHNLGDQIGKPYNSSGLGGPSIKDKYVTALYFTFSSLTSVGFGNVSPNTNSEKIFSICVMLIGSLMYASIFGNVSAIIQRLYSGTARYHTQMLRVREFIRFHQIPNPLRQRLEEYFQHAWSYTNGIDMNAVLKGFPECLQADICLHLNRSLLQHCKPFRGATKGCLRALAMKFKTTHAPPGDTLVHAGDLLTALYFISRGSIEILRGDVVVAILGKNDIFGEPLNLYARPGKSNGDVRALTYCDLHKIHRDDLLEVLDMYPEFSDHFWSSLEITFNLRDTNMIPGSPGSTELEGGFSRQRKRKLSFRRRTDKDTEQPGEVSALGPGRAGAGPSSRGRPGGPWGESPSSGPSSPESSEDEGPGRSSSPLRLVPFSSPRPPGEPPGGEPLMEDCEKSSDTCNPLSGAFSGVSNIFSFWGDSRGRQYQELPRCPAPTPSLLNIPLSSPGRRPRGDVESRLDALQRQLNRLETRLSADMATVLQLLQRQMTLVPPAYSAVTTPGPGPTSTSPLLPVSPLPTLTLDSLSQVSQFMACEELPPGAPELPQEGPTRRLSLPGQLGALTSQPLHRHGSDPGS

Structure (SMILES)	hERG current change (%, negative = inhibition) at 10uM [%]
CC(NC(=O)c1cc2cc(Br)ccc2oc1=N)c1ccccc1 (stereo not drawn)	1.31
CC(=O)c1ccc(Nc2ccc(-c3ccccc3F)nn2)cc1	-4.25
CCc1cc(C(=O)Nc2cc(Cl)ccc2N2CCN(C)CC2)sc1C	3.43
O=S1(=O)N=C2CCCCCN2C(c2ccc(F)cc2)N1 (stereo not drawn)	8.88
O=c1oc2ccccc2n1Cc1cccc(Cl)c1	7.73
CCSc1nnc(NC(=O)c2ccc3ccccc3n2)s1	13.4
CS/C(N)=N/S(=O)(=O)c1ccc(NC(C)=O)cc1	17.6
CCOC(=O)Cn1nc(NC(=O)c2ccc(C(=O)OC)cc2)cc1C	7.5
CCc1ccc2[nH]c(=O)c(CN(CCCN3CCOCC3)C(=O)Nc3cccc(Cl)c3)cc2c1	-54.1
Cc1ccc(S(=O)(=O)N2CCCC(C(=O)NCCCN3CCCCC3C)C2)cc1 (stereo not drawn)	-26.4
CCOc1ccc(C(=O)NCC(=O)OCc2c(C)noc2C)cc1OCC	23.2
CCCCOC(=O)C(C#N)c1nc2ccccc2nc1N1CCOCC1 (stereo not drawn)	-12.8
COc1nonc1NCn1nc(C)cc1C	16.2
Cc1cc(=O)oc2cc(OC(C)C(=O)NCC3CCCO3)ccc12 (stereo not drawn)	16.1
Cc1cc(C)cc(N(C(=O)c2snc(C(N)=O)c2N)C(C(=O)NCC2CCCO2)c2ccc(C)o2)c1 (stereo not drawn)	-6.05
N#C/C(=N\Nc1ccccc1)C(N)=S	2.56
CN(C(=O)C1CCN(S(=O)(=O)c2cccs2)CC1)C1CCCCC1	-17
O=C(c1cc2cc(Br)ccc2o1)N1CCOCC1	-1.63
Cc1ccc2[nH]c3c(c2c1)CN(C(=O)CN1C[C@H]2C[C@@H](C1)c1cccc(=O)n1C2)CC3	-37.3

Structure (SMILES)	hERG current change (%, negative = inhibition) at 10uM [%]
CCn1c(=O)c2sccc2n2c(CCCC(=O)NCc3cccnc3)nnc12	23
Cc1nn(C)cc1C(=O)Nc1cc(Oc2ccc(Cl)cc2)cc([N+](=O)[O-])c1	1.54
CNC(=O)c1[nH]cnc1C(=O)N[C@@H](CC(C)C)C(=O)OC(C)(C)C	-10.5
N/C(=N\OC(=O)CCCOc1ccccc1)c1ccncc1	-2.02
C/C(=N\NC(=O)C(c1ccccc1)c1ccccc1)c1ccccn1	-5.44
CCC(=O)N1N=C(c2c(-c3ccccc3)c3cc(Cl)ccc3[nH]c2=O)CC1c1ccco1 (stereo not drawn)	-8.72
Cc1ccc(NC(C(N)=O)c2c(C)[nH]c(=O)[nH]c2=O)cc1 (stereo not drawn)	9.36
CCOc1ccccc1NC(=O)CSc1nc(=O)n(Cc2ccccn2)c2c1CCC2	-36.5
COc1ccc(NC(=O)c2csc3c2CCCC3)cc1	-1.97
CN(C[C@@H](CC1CCCCC1)N(C[C@H](Cc1ccccc1)N(CCc1ccccc1)N=O)N=O)N=O.[Na+]	12.2
COC(=O)C1C2CCC(C2)C1C(=O)OCC(=O)c1ccc(C)cc1 (stereo not drawn)	-19.5
Cc1cccc(/C=N\Nc2nnc(-c3ccccc3)c(=O)[nH]2)c1	-6.75
COC(=O)c1cc(OC(=O)c2ccc(=O)[nH]c2)cc(C(=O)OC)c1	-5.48
O=C(Nc1nc2ccc(S(=O)(=O)N3CCCC3)cc2s1)c1ccccn1	-16.6
CC1=NN(c2ccccc2)C(=O)C1/C=C1\C(=O)NC(=O)N(c2ccc(C)c(C)c2)C1=O (stereo not drawn)	11.8
Cc1onc(-c2ccccc2Cl)c1C(=O)Nc1sc2c(c1C#N)CCC2	5.11
Cc1ccccc1S(=O)Cc1ccc(C(=O)N2CCN(C(=O)c3ccco3)CC2)o1 (stereo not drawn)	17.4
O=C(N1CCN(c2ccccc2F)CC1)C12CC3CC(CC(C3)C1)C2	-17.6
CCC(C)NC(=O)c1cc2c(=O)n(CC)c3ccccc3c2s1 (stereo not drawn)	-10.6

Structure (SMILES)	hERG current change (%, negative = inhibition) at 10uM [%]
Cc1onc(-c2ccccc2)c1C(=O)N1CCCCCC1	6.94
Cc1ccc(S(=O)(=O)NNC(=O)c2cc3cc4ccccc4nc3s2)cc1	-7.88
COc1ccc(C(=S)N2CCCC2)cc1C	4.72
O=C(COC(=O)c1ccccc1NC(=O)c1ccco1)NCc1ccc2c(c1)OCO2	0.815
O=C(CSc1nc(C(F)(F)F)cc(=O)[nH]1)N1CCC(Cc2ccccc2)CC1	-18.4
CN(C)C(=O)N1CCCC(C(=O)NCc2ccccc2Cl)C1 (stereo not drawn)	-14.7
O=C(O)CCc1nc2cccnc2n1Cc1ccccc1	-24.6
CCc1noc(C)c1C(=O)N1CCCC(N2CCN(c3ccc(F)cc3)CC2)C1 (stereo not drawn)	-27.2
O=C(Nc1nnc(-c2ccc3c(c2)CCCC3)o1)C1COc2ccccc2O1 (stereo not drawn)	2.84
COc1ccc2c(c1OC)C(=O)N(c1cccc(C(F)(F)F)c1)C2	1.21
Cc1csc(NC(=O)CSc2nc3nc(C)cc(C)n3n2)n1	-21.4
Cc1ccc(C(=O)NCC(=O)OCC(=O)Nc2cccc(S(=O)(=O)N3CCCC3)c2)cc1C	-21.7
Clc1ccc(CSc2nnc(-c3c[nH]c4ccccc34)o2)cc1	18.5
CCc1nnc(NC(=O)c2nc3nccc(C)n3n2)s1	1.54
COc1ccc(OCCC(=O)OCC(=O)Nc2cccc(S(=O)(=O)N3CCOCC3)c2)cc1	-18.6
O=C(COC(=O)CCOc1ccccc1)NCCC1=CCCCC1	17.9
Cc1cc(C(=O)Nc2ccccc2C#N)n(-c2ccccc2)n1	4.37
Br.Cc1nn2cc(-c3ccc(Cl)cc3)nc2s1	2.21
Cc1ccc(S(=O)(=O)N(Cc2n[nH]c(=S)n2-c2ccccc2)c2ccccc2)cc1	-19.1
